The other results are listed elsewhere or left out.
Each sequence was assayed on PfSIP2 AP2 domain 1 (GST-tagged) (assay: gcPBM binding intensity (ln(normalized median fluorescence intensity)); higher = stronger DNA binding).
Method in brief: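 An Agilent 4 × 180k array of primer-extended double-stranded 36-bp intergenic genomic probes, with negative controls, was incubated for 1 h with GST-tagged P. falciparum DNA-binding domains expressed in E. coli. Alexa488 anti-GST antibody detected bound protein, scanned at 488 nm. Binding intensity is the highest Masliner-normalised natural-log median intensity across replicate spots of either probe orientation.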

Row | Sequence | gcPBM binding intensity (ln)
1 | CATATATGTGATAACACGCACACAAATGTATAGAAT [CACACA_site2594] | 6.99
2 | TATTTATTTATTTATGCATGCATGAATAATTTTTAC [TGCATGCA_site31] | 7.04
3 | ATTATTTAGAAATGAGCACACAAAAAGAAGAATTTT [CACACA_site7913] | 7.03
4 | ACAAGAGAAGTAATTGCACACGTTGTTTCTTTTTCT [CACACA_site35] | 6.94
5 | CCACATATACAAAACACACACACAACGTTTTAATAA [CACACA_site1978] | 7.24
6 | ATAATAATATAAAATACACACCTATTATTTTTACAA [CACACA_site6069] | 6.86
7 | TCACTATAGTAATTTACACACATTTGAAGAAAATGT [CACACA_site7626] | 6.98
8 | TAGAATATGTTTAGTTGTACAAAACAAAATGGAATT [XGTACX_site5293] | 6.93
9 | CACATAAAAAAATAAACACACATATGTATATATATA [CACACA_site3177] | 8.31
10 | ATTTATTTTTTGTGTTCACACATTAGTATCATCTAT [CACACA_site5274] | 6.85
11 | ATTTTTCTAAAATACTGTACAAAGGTGCATAAAAAG [XGTACX_site4425] | 11.5
12 | TCTAATGATATATACACACACATATAGATTTATATA [CACACA_site7044] | 6.98
13 | ATATTTATGGAATATACACACATGTATAATTATATA [CACACA_site2033] | 6.96
14 | TTTTCTGTTTTCATTACACACCTTACAAGAACAATA [CACACA_site2158] | 7.65
15 | TGCTTTTCTTTTTGCACACTTATGCATATATATATA [CACACA_site2583] | 9.5
16 | AAATAAGAAAAAGCGCGTACACATAACATTTTTATA [XGTACX_site8807] | 7.25
17 | TTTATTCAAGGAATAGTGCATAATAATAAGTATTAT | 8.18
18 | TGTATTCTCTTAGTAGTGCATTTGAAGATTATATAA | 9.31
19 | ATTTTTTTTTTTTTTTCATGAAATTTTTTTTTTTTT [CACACA_negctrl_site1069] | 6.85
20 | TTAAAAAAAAATAAAGGTACACGGAGAAATCCTTTT [XGTACX_site7509] | 6.54
21 | ATATATTTATTATTAGGTACACATATATATATATAT [XGTACX_site5045] | 9.3
22 | AACCACCACACCATCACACATAAGATTAGACGAGTA [CACACA_site6063] | 7.23

Row | Sequence | gcPBM binding intensity (ln)
23 | TTATATAGAATTAATTTCTTTTTTTTCTTTTTTAAA [CACACA_negctrl_site1308] | 6.42
24 | TGTAGTAATGCTTATTGTACATATACATTTCTTACA [XGTACX_site219] | 6.92
25 | TTTTTTTTTCGCTTTTGTACACATTTTATAGAACAG [XGTACX_site2416] | 7.33
26 | TATTATATATATGGAAGTACAGGTATATCGTTTTTC [XGTACX_site3771] | 7.08
27 | TTTTCCCTTAACCTCTGTACATATAATTTTCTTTCC [XGTACX_site4180] | 7.27
28 | AAATATTTTTTAATTGTTCACTTGGTGGATCATTAA [CACACA_negctrl_site922] | 6.76
29 | TATCCATTATTTAAAAGTACAAAAAACGATTTACAC [XGTACX_site2979] | 7.28
30 | AATATCACATTCCACGGTACACACTAAAAGAAAAAT [XGTACX_site7653] | 7.17
31 | ATAAATACGATTAATTAGGTTTGTATAAATTAAATT [GTGCAC_negctrl_site635] | 6.76
32 | TCATGTAGTAAAAACTGTACAAATTATTTATCATGT [XGTACX_site1727] | 6.96
33 | ATAACTTTTGCGCGTACACACATTTATCCTCTTTAT [CACACA_site209] | 7.59
34 | TTTTCTTTATTATAATGTACTCACAAATAAATATAA [XGTACX_site7298] | 7.19
35 | CTATAATAGAAGTGTACACACATATTTATGTCTGTA [CACACA_site7462] | 7.15
36 | TTTCATTTTAGAAGTACACACAAAAAATAAAATAAT [CACACA_site2141] | 7.82
37 | AAAATTGTGAAAGGGAAGATGATCAAATTGTTAAGG [CACACA_negctrl_site1492] | 7.01
38 | GATGGGCAAATTTACTGTACTTTTATAATATTTTTT [XGTACX_site4830] | 7.42
39 | TATAATGGTAAAAACACACAAATATGAAGATGTTAA [CACACA_site6479] | 6.66
40 | GTACCTATAAATATTACACACATTTTCATTTTTAAC [CACACA_site7022] | 7.38
41 | AAAAAAAATTATATTTGTACGCATTAAAAAATCTAA [XGTACX_site1616] | 6.99
42 | CTTAAAAACAAAAATGCACACATAATAAGCATATGT [CACACA_site9149] | 7.26
43 | ATTAAACTCATTAAGAGTACAGATAACATTAAAGTA [XGTACX_site8697] | 6.99
44 | TGAAATTAGATATATACACACATATAGATTTATATG [CACACA_site7619] | 6.9
